Values marked as one replicate rest on one cluster of the flow cell; about a third of the high ones do not repeat.
Tested on: ATP
Assay: switch fluorescence ratio, 500 uM ATP over buffer (Cy3 cluster intensity, sum of 5 cycles each) (fold (ratio)); higher = stronger signal-on switching upon ATP binding; sequences stand for … in TCGTCGGCAGCGTCAGATGTGTATAAGAGACAGTTTTTTTTTTTTTTTTTTTTTTTTT…TC
Details: aptamer strand: ATP DNA aptamer (quencher-CACCTGGGGGAGTATTGCGGAGGAAGG + anchor), 100 nM annealed; ATP concentration: 500 uM; one replicate
Outline: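 Cy3-labelled switching-strand clusters on a modified Illumina MiSeq flow-cell were annealed to 100 nM quencher-labelled ATP aptamer, imaged in selection buffer, then imaged after 15 min with 500 uM ATP at 22 °C. Five buffer/ATP cycles ran, with NaOH stripping and re-annealing between them. The fluorescence ratio is summed target-cycle over summed buffer-cycle Cy3 intensity per cluster, averaged per switch-domain sequence. Clusters outside 100-1000 RFU were excluded.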
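Also: ATP exposure 15 min at 22 °C before imaging.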

| Sequence | switch fluorescence ratio |
| --- | --- |
| ATGATGACAA | 0.995 |
| CAGCACTTGT | 0.999 |
| TCGGGTCGGC | 0.969 |
| TCATCTGTCT | 0.979 |
| CGTTTCAGAC | 1.27 |
| TGCGCGATCT | 1.22 |
| TGAGCAGAGA | 1.02 |
| ATTTCGTAT | 1.03 |
| GCACGATGTT | 0.987 |
| TTGAAGCCTT | 1.08 |
| GTAGTAGGAT | 0.968 |
| ATTTACGAAA | 1.08 |
| CACTGAGTCT | 1.05 |
| GAGCAACCCT | 1.24 |
| GCTGGACCCA | 0.974 |
| CTATGGTGGC | 1.03 |
| AAAATACTTT | 1.16 |
| TCCGGAGGAA | 1.62 |
| GAGTCTCATT | 0.989 |
| CGGAGCTAAG | 2.29 |
| ACCATTGGTA | 1.01 |
| ATACTTCTTC | 1.06 |
| GATAGAGCCT | 1.1 |
| AATTATGAGC | 1.08 |
| TCGATCTGCC | 1.05 |
| CCCTTTAGAA | 1.11 |

| Sequence | switch fluorescence ratio |
| --- | --- |
| CTCAGAGGAT | 0.997 |
| GGGGTTACTA | 1.02 |
| GAATCCAGGG | 1.16 |
| TATACCTGCG | 1 |
| GTAAATAGCA | 0.986 |
| ATTGTACTTG | 1.53 |
| TTCGCGGGCA | 1.07 |
| TGAACGGGTA | 1.05 |
| CCGTAAAGGG | 1.07 |
| CTTTTTACAA | 0.97 |
| CAACTCAAAA | 1.05 |
| CGGAGAGACA | 0.973 |
| ATGAACCTGG | 0.989 |
| ACTTATTGAT | 0.96 |
| GCGCCCTGAG | 1.05 |
| TGGACTCTGC | 0.996 |
| GTGGGGATCA | 0.985 |
| ACAATCAATT | 0.997 |
| GTGAACCTA | 1.08 |
| CGAATCCCCG | 1.28 |
| TTATGTTATG | 0.987 |
| AAGGTCATAG | 1.01 |
| TAAAAGTGCT | 1.03 |
| AGCCAGATTT | 1.03 |
| GGTTGCTCGA | 0.982 |
| AAGTAGGCGA | 0.99 |

| Sequence | switch fluorescence ratio |
| --- | --- |
| TCCTGCAAC | 1.48 |
| GTAGAGCCTT | 0.973 |
| CATGGTTG | 1.02 |
| ATCTTAACAC | 1.01 |
| CAGTTGAATC | 0.98 |
| ATAAAGCTTT | 1.01 |
| GGTGAAGCTA | 0.994 |
| GAACCCTCGC | 1.19 |
| ATAACAACTC | 1 |
| GGCCCGTTGC | 1.04 |
| CCAGCGGACC | 1.14 |
| TACTGGCAGG | 1.02 |
| GCTCTTGATC | 1.01 |
| CTTGAGTTTC | 1.01 |
| CGGGGTGTAG | 0.993 |
| GCTGCTGGAG | 1.08 |
| CATAAGTTTG | 0.968 |
| GATTCGGCGG | 1.01 |
| CGTGAGACGG | 1.01 |
| TCATACCCTT | 1.09 |
| GAGTTACATT | 0.983 |
| GTCATATATT | 0.989 |
| AATTGCTAGT | 1 |
| CATGATTATA | 0.988 |
| TGCCATTGTC | 1.02 |
| GAAAACGTTA | 1.03 |

| Sequence | switch fluorescence ratio |
| --- | --- |
| GGGAGTTACG | 1.01 |
| CAAAAGACAT | 1 |
| ATCGATGGAG | 1.01 |
| AGTTTTCAAT | 0.999 |
| GACAATTCCG | 1.02 |
| TAGTTTTAAG | 1.02 |
| AAAGGCTCTC | 1.01 |
| AGGGCCGGTG | 0.981 |
| TAGACACGGG | 1.16 |
| ACGTAGACTC | 1.34 |
| CTTTAACTAC | 1.03 |
| CAGCGTCGCG | 0.95 |
| TCTATGGAAC | 1.06 |
| TTTGATGGAT | 0.992 |
| CATGGTGACG | 0.955 |
| ACCTCTTGG | 1.03 |
| TGCATGGTGC | 1.09 |
| CTCCGACGGA | 1.46 |
| TCAAACTTT | 1.03 |
| TTTATTGTG | 0.943 |
| GGCGCACCTA | 1.01 |
| GGTGCTTAAG | 0.996 |
| GTTATGTTAA | 0.99 |
| AGCCGAAGCC | 1.21 |
| ATGATCCTAC | 0.999 |
| CTGAAGAAT | 0.998 |

| Sequence | switch fluorescence ratio |
| --- | --- |
| TTTGAGCACG | 0.992 |
| TCGTCGCATG | 1.13 |
| TTCCAGCCTT | 1 |
| ATAACCTGGT | 1 |
| TTTTGGAGGC | 1.01 |
| CGATTAAGAG | 0.969 |
| TTTGGCCTGT | 1.06 |
| GCTCGAGTTC | 1.01 |
| GTCTAAAGTC | 1 |
| ACTTACGGCT | 1.22 |
| GCTAAAGACG | 1.01 |
| GATCGTGTAA | 1.01 |
| AACTACGAAT | 1.11 |
| GATCATACAA | 1.04 |
| CGGTCAATAG | 2.9 |
| TTCCAGTGCT | 1.4 |
| CGGGATGCGG | 0.955 |
| TGCTCAAATG | 0.98 |
| CCTGTTTTAA | 0.981 |
| GGCGTTTTCA | 1.05 |
| GGTCATCT | 1.08 |
| TAAGCTCCGA | 1.04 |
| GAAGGGTGG | 0.953 |
| AGCAATTCTG | 1.13 |
| AACGAACGTG | 1.17 |
| TGCGGAAGCT | 0.985 |

| Sequence | switch fluorescence ratio |
| --- | --- |
| ACCGGCCAGT | 1.08 |
| CCAACATAGG | 1.02 |
| CTATGATTCT | 0.995 |
| GTCATGCCCG | 0.96 |
| GAGGCGTGAT | 1.01 |
| GAAATGGAGA | 1.01 |
| GTGCGAGGAC | 0.994 |
| CAATTAATTT | 1.05 |
| ACGATTAAT | 1.06 |
| CAAGGTAGAT | 0.981 |
| TCTTTGGGA | 1.01 |
| GGTTACGCCC | 1.05 |
| ACTGGGCTTG | 1.04 |
| CCTATTCCC | 1.03 |
| AGGCCTATAC | 1.1 |
| GGTTCGAAAA | 0.949 |
| TAAAGAAC | 0.999 |
| ACTTGCTCCG | 4.54 |
| GCATTTGCAG | 1.01 |
| CGGTAGTATA | 0.99 |
| CGGCCATGCG | 0.998 |
| AACGTGAATA | 1.08 |
| GACATGCAAT | 1.6 |
| CTGTGAAATG | 1.03 |
| CACGGCCTAG | 0.978 |
| ATTGGAAGGT | 0.996 |

| Sequence | switch fluorescence ratio |
| --- | --- |
| GGTCGAATGC | 1.01 |
| GTCTGGCC | 1 |
| GGCAAGACCG | 1.04 |
| GATCCCTGTT | 0.957 |
| CGGTAAGTTT | 0.992 |
| CTGGGCCTCC | 1.08 |
| GCGCTGCATC | 1.15 |
| AACATGAGGC | 1.07 |
| CCCCGGGTTG | 1.48 |
| CCGGTTTTCC | 0.996 |
| ATCCATTTAG | 0.96 |
| CAGAGTTGCG | 1 |
| AGATGGAACA | 1.05 |
| TATGGTTCGT | 0.999 |
| TTGGTTATAT | 0.967 |
| TTTCACGGGC | 1.04 |
| GCTAACGGAC | 1.33 |
| GAGGGTGTAC | 1.02 |
| GGGTCAACAC | 1.07 |
| ACCAAGTCTA | 1.01 |
| AGTCGCCTGC | 1.19 |
| GGCCTCACGG | 0.94 |
| ACCTAAAGGT | 1.09 |
| GGAGGTACA | 1.03 |
| TATATTTTTG | 1.08 |
| TGAAGAGGGT | 0.977 |

| Sequence | switch fluorescence ratio |
| --- | --- |
| GATTGTTAAG | 1.01 |
| TGTATTAGGA | 0.969 |
| TTGTACAAGC | 1.04 |
| TATCGTGGTG | 0.972 |
| GCATTTTAGC | 0.981 |
| TATTAGAGAA | 0.999 |
| GTCGGCCTTA | 1.02 |
| CAGCCAGATA | 0.96 |
| TAGGTCCTTC | 1.03 |
| ATTACCGGGA | 1.05 |
| ACTTGGCTAC | 2.64 |
| CTATTGTTTA | 1.01 |
| GAGAGGGGCG | 1.11 |
| TACAGTCCCT | 1.04 |
| CACTTGTTTA | 0.975 |
| TAATATCCC | 1.03 |
| AGATGACGAG | 1.01 |
| CGGTATCAAT | 1.03 |
| ATTTCCTGGG | 1.01 |
